Data from paper PMC5836133.
The list shows a part of the results. At the low end of the ranking the order means little.

test system: T1, GST-NbGlk1(82-244); experiment: protein-binding microarray; conditions: NbGlk1 is a Golden2-like transcription factor of Nicotiana benthamiana; high values mean tight binding; most listed sequences are background and not binding sites; double strand, one strand shown;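 further: rank-based score ranging −0.5 to +0.5 with E above 0.45 taken as significant binding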
T1 sequence: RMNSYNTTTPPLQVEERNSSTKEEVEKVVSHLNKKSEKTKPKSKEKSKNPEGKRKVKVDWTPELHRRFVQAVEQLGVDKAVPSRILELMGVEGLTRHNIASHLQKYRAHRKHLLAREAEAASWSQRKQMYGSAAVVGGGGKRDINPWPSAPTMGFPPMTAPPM

| Sequence | binding signal [E-score] |
| --- | --- |
| AGTACCAG | -0.222 |
| ATAGAGGG | -0.0503 |
| ATATTCGA | 0.293 |
| ACGTACTG | -0.116 |
| AGGTATGA | 0.0493 |
| ACCGAGCA | -0.132 |
| AAGAACAG | -0.103 |
| AACTTTCG | 0.00927 |
| ATCATCTA | 0.179 |
| ATTCTTTC | 0.202 |
| AGGAGAAA | 0.0307 |
| CACAGAGC | -0.247 |
| AAGATACA | 0.0411 |
| AGCAGTGA | -0.15 |
| ACATGAGG | -0.0661 |
| AGGTGGAC | -0.193 |
| ATTAGCGA | 0.18 |
| AATTTTAG | 0.222 |
| AAAGTTTA | -0.0636 |
| AGCGTCCT | -0.358 |
| ACGACATA | -0.075 |
| AGGTGGGG | -0.228 |
| ACACCGGG | -0.078 |
| AAGCAACA | -0.104 |
| ACACATAG | 0.0105 |

| Sequence | binding signal [E-score] |
| --- | --- |
| ATCAATGG | -0.0285 |
| ACAAAGGA | 0.101 |
| AGACAGGA | -0.0939 |
| ATTCTCAA | 0.329 |
| AGATGCTC | 0.0454 |
| AGCTGGGC | -0.225 |
| ACTGTCGG | -0.172 |
| AATAAATG | 0.083 |
| CAATCCTC | 0.269 |
| AGAAGAAA | -0.0918 |
| AGTTTCGG | -0.23 |
| ACCATAAG | -0.143 |
| ACTGTTAG | -0.0303 |
| ACAGATCT | 0.356 |
| ACAGCATA | 0.121 |
| ACTGCTTA | -0.0502 |
| AAGAAGTG | -0.0817 |
| AACCGTAC | -0.144 |
| ACGTGCAA | 0.121 |
| CAGAATCC | 0.447 |
| AATGTTGG | -0.0396 |
| ACCCTTCA | -0.235 |
| CACTTATC | 0.0299 |
| ATCTAGTG | 0.242 |
| ACATGGAA | -0.00796 |

| Sequence | binding signal [E-score] |
| --- | --- |
| ACTACCAT | 0.0314 |
| CAAGAGTC | -0.264 |
| ATTGAGCG | -0.0198 |
| AAAATTCC | 0.201 |
| ACTTTGCG | -0.0202 |
| AGCGGTTA | -0.027 |
| ATGTACTC | -0.0476 |
| AGAGCTCG | -0.166 |
| CACTTCAG | -0.0681 |
| AGGTCGCA | -0.263 |
| AGCTGCAA | -0.0367 |
| AGGTGAAC | -0.263 |
| ATATTCAA | 0.213 |
| ACCGGCTG | -0.227 |
| AGAACCCA | -0.0964 |
| AGGCTTTG | -0.116 |
| CACCGAGA | 0.078 |
| AAGAACCG | -0.0573 |
| AGTTATCG | -0.0524 |
| AAATGTGA | 0.0267 |
| AATGGTAC | 0.0533 |
| AGCGTATA | 0.00126 |
| CAATAGGG | -0.00678 |
| AACCGTAT | 0.0843 |
| ATAAGCCG | -0.105 |

| Sequence | binding signal [E-score] |
| --- | --- |
| ACGGTACG | -0.0118 |
| ACGTTCGG | -0.0348 |
| ACTCAGAT | 0.255 |
| AATGATAG | 0.106 |
| ACCGCTAT | -0.0288 |
| AAAGGAAC | -0.0795 |
| CAAAAAGG | 0.0237 |
| AAACTGAG | -0.057 |
| ACCGCACA | -0.015 |
| ATGCGGTG | -0.0278 |
| ACTGTTCA | -0.104 |
| AAAGAGGG | -0.194 |
| ATGACTTC | -0.214 |
| ATCATCCC | 0.0621 |
| AGTTTCGA | -0.0151 |
| AGGTCGTA | -0.0567 |
| ACACGGCT | -0.235 |
| ATCCTCTC | 0.187 |
| AACCATAT | 0.128 |
| AACCACCA | -0.055 |
| CACAGCTA | -0.152 |
| ATTAGAGG | -0.0306 |
| ACCGTCGT | -0.14 |
| AAAGTATC | 0.243 |
| AACAAGTG | -0.149 |

| Sequence | binding signal [E-score] |
| --- | --- |
| ACTCATGG | -0.139 |
| ACGCGGGG | -0.168 |
| AGCGTGGA | 0.0641 |
| ACTTGGCC | -0.116 |
| AGTAGTTC | 0.022 |
| ACCACCCA | -0.0673 |
| AAGCATAC | -0.104 |
| ACGTAGAG | 0.031 |
| AATCGGTC | 0.172 |
| AGACCTGC | -0.184 |
| ACAATAAC | -0.0904 |
| AGCGCTGA | -0.0479 |
| ATCGGGCA | 0.111 |
| ACGATGCA | -0.0293 |
| AAGTATGA | 0.0906 |
| ATCAGTTA | 0.121 |
| AACGTGCG | -0.114 |
| CAACACAA | 0.0838 |
| ACGGAGCC | -0.13 |
| AGAAAATC | 0.479 |
| AACCCTCC | -0.242 |
| AACACTTA | 0.0934 |
| AGTAGGCA | -0.108 |
| AAACCCAC | -0.198 |
| CAATGATA | 0.127 |

| Sequence | binding signal [E-score] |
| --- | --- |
| CACACATG | -0.132 |
| AGAAGAGA | 0.0203 |
| CAATAGCC | -0.0908 |
| ACAGGTAA | 0.0116 |
| AAGATCAG | 0.222 |
| AGGATCAA | -0.00503 |
| AATAAACG | 0.0778 |
| ATATGGTA | 0.228 |
| CAAGCGAG | -0.113 |
| ATTCCGGA | 0.232 |
| AGGCCTTA | -0.0972 |
| AGTCATAA | 0.0167 |
| CAGAGTCA | -0.0451 |
| AGTGTGGG | -0.0288 |
| CACAACGC | -0.0957 |
| ATGTGTAA | 0.176 |
| ACGTACGG | -0.0688 |
| ATCACCCC | -0.0506 |
| AGCATTCA | -0.0872 |
| AACCTCGA | 0.0076 |
| AACGCCCT | -0.233 |
| AATCCTGT | 0.371 |
| ACAACTGC | -0.0596 |
| CAATTTCG | 0.206 |
| ACCATGCT | 0.0139 |

| Sequence | binding signal [E-score] |
| --- | --- |
| ATGCAAGA | 0.106 |
| ACGCCCAC | -0.167 |
| ATGTGACA | 0.0405 |
| AGTGCAGG | -0.171 |
| CACCTGCA | -0.0836 |
| AAGTCGTA | -0.0359 |
| ACAGAAAA | 0.181 |
| AGTCCCAT | -0.178 |
| AACATGGG | -0.116 |
| AATCAGTA | 0.268 |
| AAGTACCA | -0.15 |
| AGGCCTAC | -0.237 |
| ACTTTGAG | -0.0814 |
| ACTGCCTC | -0.282 |
| AACTAACT | -0.0316 |
| AGCGAGCT | -0.214 |
| AAGGTTCC | -0.186 |
| ATACAGAG | 0.14 |
| ACTACAGA | 0.0769 |
| ATGCACCC | -0.169 |
| AAATATCG | 0.375 |
| ATCAGGCA | 0.137 |
